In publication PMC4336329 (PLoS ONE, 2015):
Screen size: about 310,000 compounds; about 2,200 (0.71%) showed an effect of 50% or more. Effects have a minus sign here. The list shows a part of the results.

target: human ether-à-go-go-related gene (hERG) potassium channel (human, UniProt Q12809); assay: primary screen, population patch clamp on CHO cells stably expressing hERG
Sequence (Q12809 whole entry, looked up): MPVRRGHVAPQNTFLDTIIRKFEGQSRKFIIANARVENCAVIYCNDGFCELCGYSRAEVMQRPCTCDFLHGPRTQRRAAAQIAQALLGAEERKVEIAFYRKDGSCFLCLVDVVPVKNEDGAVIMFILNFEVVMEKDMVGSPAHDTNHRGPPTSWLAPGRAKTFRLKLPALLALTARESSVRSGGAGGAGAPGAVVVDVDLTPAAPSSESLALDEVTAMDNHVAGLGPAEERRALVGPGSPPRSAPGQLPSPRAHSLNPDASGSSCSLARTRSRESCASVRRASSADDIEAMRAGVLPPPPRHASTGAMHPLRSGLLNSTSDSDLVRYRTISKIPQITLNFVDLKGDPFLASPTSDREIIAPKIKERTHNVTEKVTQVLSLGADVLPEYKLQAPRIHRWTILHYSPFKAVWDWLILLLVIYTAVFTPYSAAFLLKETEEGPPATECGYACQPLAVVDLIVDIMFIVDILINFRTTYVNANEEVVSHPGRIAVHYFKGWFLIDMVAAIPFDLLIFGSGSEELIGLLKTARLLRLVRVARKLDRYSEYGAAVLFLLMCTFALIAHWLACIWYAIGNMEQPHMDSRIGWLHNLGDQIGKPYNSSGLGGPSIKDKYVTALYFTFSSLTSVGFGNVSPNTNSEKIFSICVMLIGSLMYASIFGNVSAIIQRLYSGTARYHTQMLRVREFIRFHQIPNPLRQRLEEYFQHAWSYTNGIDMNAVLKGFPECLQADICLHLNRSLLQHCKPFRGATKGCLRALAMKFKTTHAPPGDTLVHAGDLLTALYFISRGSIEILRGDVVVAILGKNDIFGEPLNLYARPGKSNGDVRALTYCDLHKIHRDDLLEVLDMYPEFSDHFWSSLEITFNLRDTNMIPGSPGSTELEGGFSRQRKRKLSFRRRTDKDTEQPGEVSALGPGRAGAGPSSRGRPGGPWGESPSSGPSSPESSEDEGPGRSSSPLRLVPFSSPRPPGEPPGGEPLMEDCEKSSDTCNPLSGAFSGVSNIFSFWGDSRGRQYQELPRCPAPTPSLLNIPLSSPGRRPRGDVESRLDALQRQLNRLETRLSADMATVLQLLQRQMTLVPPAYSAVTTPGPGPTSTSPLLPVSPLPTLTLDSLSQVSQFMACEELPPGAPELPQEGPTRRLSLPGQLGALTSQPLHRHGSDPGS

| Compound | hERG current change (%, negative = inhibition) at 1uM [%] |
| --- | --- |
| CC(C)(C)C(=O)N1CCC(O)(CS(=O)(=O)Cc2ccccc2Cl)CC1 | -2.08 |
| Cc1cccc(NC(=S)NCc2cccs2)c1C | -4.04 |
| CCCOc1ccc(C2(C(=O)O)CCCC2)cc1 | 8.31 |
| CCN(C(=O)C1CCCCC1)c1nnc(-c2cccnc2)s1.Cl | 4.41 |
| COc1ccccc1O | 14.5 |
| O=C(NCCc1ccccn1)c1cncc(Br)c1 | 13 |
| COC(CNc1ncnc2sc(-c3ccccc3)cc12)OC | 1.81 |
| Cc1ccc(C)c(N=Nc2nc3ccccc3n2C)c1 | 6.38 |
| CCOc1ccccc1C(=O)OCC(=O)NCC1CCCCC1 | 8.09 |
| Cc1sc2nc(SCCN(C)C)n(-c3ccccc3)c(=O)c2c1-c1ccc(F)cc1 | 17.9 |
| CCOc1ccccc1CNS(=O)(=O)c1ccc2c(c1)oc(=O)n2C | 9.66 |
| COc1cc(C=Nc2cccc([N+](=O)[O-])c2C)ccc1OC(C)=O | 16.2 |
| CCN1CCN(CCCNC(=O)c2cc3c(=O)[nH]c4ccccc4c3s2)CC1 | 1.35 |
| C[N+]1(C)CCC(OC(=O)C(c2ccccc2)c2ccccc2)CC1.[I-] | 8.61 |
| CCS(=O)(=O)NCc1ccc2[nH]c3c(c2c1)CCCC3 | 12 |
| COc1ccc(N(CC(=O)Nc2ccc(OC)c(OC)c2)S(=O)(=O)c2ccccc2)cc1Cl | 10.4 |
| COc1ccc(NC(=O)C2CCCN(S(C)(=O)=O)C2)cc1Cl (stereo not shown) | 14.8 |
| O=C1CSC(c2ccc(F)cc2)N1c1c(F)cccc1F (stereo not shown) | 10.7 |
| COC(=O)C(NC(=O)c1ccccc1C)(Nc1ncc(S(=O)(=O)c2ccc([N+](=O)[O-])cc2)s1)C(F)(F)F (stereo not shown) | 2.23 |
| c1cc(C2N3CCCN2CC3)ccn1 (stereo not shown) | 15.9 |
| O=C(N/N=C/c1ccsc1)c1c[nH]c2ccccc12 | -0.145 |
| CCOCc1c(C(=O)Nc2ccc3nc(N4CCOCC4)sc3c2)oc2ccccc12 | -12.2 |
| c1ccc(Nc2nc(CSc3ncn[nH]3)cs2)cc1 | 14.4 |

| Compound | hERG current change (%, negative = inhibition) at 1uM [%] |
| --- | --- |
| Cc1ccccc1OCC(=O)OCC(=O)Nc1ccc2c(c1)OCCO2 | 7.22 |
| CCOC(=O)c1ccc(NC(=O)c2cc(C)nn2-c2ccccc2)cc1 | 9.05 |
| CCCc1nc(NC(C)=O)c(C#N)c(-c2ccco2)c1CC | 0.0807 |
| O=C(CSc1nc(C2CC2)nc2ccccc12)N1c2ccccc2Sc2ccccc21 | 8.18 |
| CC(C)(C)c1ccc(S(=O)(=O)NCc2ccc(C(=O)NCc3ccccn3)cc2)cc1 | 0.641 |
| Cc1c(NC(=O)COC(=O)C23CC4CC(CC(O)(C4)C2)C3)c(=O)n(-c2ccccc2)n1C | 7.24 |
| CCCOn1nnnc1-c1ccccc1 | 13.6 |
| COc1ccc(C(C)n2c(C)c3c(C)nnc(C)c3c2C)cc1 (stereo not shown) | -52.3 |
| O=C(CSc1ccc(-c2nc3ccccc3[nH]2)cn1)Nc1ccc(S(=O)(=O)NC2CC2)cc1 | 5.89 |
| CCOC(=O)C1CCN(C(=O)c2cccc(S(=O)(=O)N3c4ccccc4CC3C)c2)CC1 (stereo not shown) | -9.25 |
| Cc1ccc(S(=O)(=O)NC(C)C(=O)OCC(=O)N(C)c2ccccc2)cc1 (stereo not shown) | 12.6 |
| Cc1sc2nc(SCC(=O)N(C)C)[nH]c(=O)c2c1C | 10.4 |
| COc1cc(/C=C2\SC(=S)N(CCC(=O)Nc3ccccn3)C2=O)cc(OC)c1OC | 5.8 |
| COc1cc(/C=N/NC(=O)c2ccc(N)cc2)ccc1OC(=O)c1cccc(C)c1 | 9.03 |
| O=C(Nc1cccc(S(=O)(=O)N2CCCC2)c1)c1cccc(S(=O)(=O)N2CCOCC2)c1 | 6.09 |
| Cc1cccc(NC(=S)NC(=O)c2oc3ccccc3c2C)n1 | 21 |
| Cc1nc(NC2=NCN(CCCN3CCOCC3)CN2)nc2c(C)cccc12 | 10.9 |
| O=S(=O)(O)c1ccc(SCc2ccccc2)nc1 | 13.1 |
| O=C(O)Cn1cc(C(=S)N2CCCCC2)c2ccccc21 | 10.2 |
| Cc1cc(C)cc(-n2nnc(C(=O)NCc3ccc4c(c3)OCO4)c2N)c1 | -0.637 |
| Cc1ccc(N2CCN(C(=O)c3ccccc3NC(=O)c3ccccc3C(=O)O)CC2)cc1 | 0.204 |
| O=C(NCc1ccco1)c1ccc2[nH]c(=O)c(=O)[nH]c2c1 | 4.09 |
| Cc1ccc(C(=O)NCc2ccc3c(c2)OCO3)cc1Cl | 15.9 |

| Compound | hERG current change (%, negative = inhibition) at 1uM [%] |
| --- | --- |
| O=C(N/C(=C\c1cccs1)C(=O)N1CCCCCC1)c1ccccc1 | 1.61 |
| Cc1ccc(-c2nnn(CCC(=O)NC(C)(C)C)n2)cc1 | 5.38 |
| C=CCc1cc(C)ccc1OCC(O)CN1CCN(c2ccccc2)CC1 (stereo not shown) | 1.51 |
| COc1ccc(C)cc1NC(=O)COC(=O)c1c(C)nn(-c2ccccc2)c1C | 9.3 |
| O=[N+]([O-])c1ccc2c(c1)nc1n2CCN(c2ccccc2)C1 | -0.0448 |
| O=C(NNC(=O)c1ncc(Cl)c(Cl)c1Cl)c1ccc(F)cc1 | 13.2 |
| Fc1cc2[nH]c(=S)[nH]c2c(Br)c1N1CCSCC1 | 16 |
| COc1ccc(C2CC(c3cccs3)=NN2C(=O)CSC2=NCCS2)cc1 (stereo not shown) | 6.8 |
| COCCCNC(=O)/C(C#N)=C/c1cc(C)[nH]c1C | 13.7 |
| CCN1C(=O)N(c2ccc(Cl)cc2)C(C)=CC1(C)C | 9.95 |
| CCCC(=O)N1CCN(c2ccc(NC(=O)c3ccc(N4CCCC4)c([N+](=O)[O-])c3)cc2Cl)CC1 | -8.46 |
| O=C(CSc1ncc(-c2ccc(F)cc2)n1Cc1ccco1)Nc1ccc2c(c1)OCO2 | 11.5 |
| Cc1ccc(C)c2[nH]c(=O)c(CN(CCN3CCCC3)C(=O)Nc3ccc(F)cc3)cc12 | -76.6 |
| CCOc1ccccc1OCCCC(=O)Nc1nc2ccccc2[nH]1 | 6.55 |
| CCOC(=O)Cc1csc(NC(=O)CSc2nnnn2-c2ccc(C)c(C)c2)n1 | 10 |
| Cc1cc(C)cc(OCC(=O)Nc2ccc(N3CCN(C(=O)c4ccco4)CC3)cc2)c1 | -3.17 |
| COc1ccc(-n2ccnc(SCC(=O)NC3CCCCC3)c2=O)cc1 | 2.42 |
| CCOC(=O)C1=C(N)OC2=C(C(=O)CC(C)(C)C2)C1C1CCCCC1 (stereo not shown) | 6.47 |
| CCCCN(CC)CCCNC(=O)c1cc2c(-c3ccc(OC)c(OC)c3)nn(C)c2s1 | 3.69 |
| O=C(Nc1ccccc1)N1CCC(c2ccccc2)C1 (stereo not shown) | 5.64 |
| COc1ccc(NC(=S)NCCN2CCOCC2)cc1 | 2.19 |
| CC(=O)N1CCC(N(CCN2CCOCC2)C(=O)Nc2ccc(Cl)c(Cl)c2)CC1 | 2.68 |
| Cc1cc(N/N=C/c2ccc(O)cc2O)nc(-n2nc(C)cc2C)n1 | 7.03 |

| Compound | hERG current change (%, negative = inhibition) at 1uM [%] |
| --- | --- |
| Cc1cc(C)n(CC(=O)N/N=C/c2ccco2)n1 | -3.45 |
| CC(=O)Nc1ccc(S(=O)(=O)NNC(=O)c2cccc(Cl)c2)cc1 | 8.19 |
| Cn1cnc(S(=O)(=O)N2CCN(c3ccccc3)CC2)c1 | 12 |
| C=CCOc1nc2c(c(=O)n(Cc3ccc(Cl)c(Cl)c3)c(=O)n2C)n1C | 13.1 |
| CCN(CC(F)(F)C(F)F)S(=O)(=O)c1ccc(NC(=O)OC)cc1 | 4.29 |
| COc1ccc(/C=C2\SC(=O)N(CC(=O)NC3C=CS(=O)(=O)C3)C2=O)cc1 (stereo not shown) | 9.31 |
| O=C(O)c1ccccc1NC(=O)C1C2CCC(O2)C1C(=O)O (stereo not shown) | 9.73 |
| O=C1c2ccccc2C(=O)N1CSc1nnc(Nc2ccccc2F)s1 | 5.23 |
| CCc1c(C)[nH]n(-c2nc(-c3cccc([N+](=O)[O-])c3)cs2)c1=O | 12.2 |
| CCOc1ccccc1N1CCN(C(=O)C2=CC=CN3CCS(=O)(=O)N=C23)CC1 | 9.94 |
| NC(=O)CSc1ncnc2c1oc1ccccc12 | 12.8 |
| O=C(NCCCn1ccnc1)c1cccc(Cl)c1 | 8.85 |
| COc1ccc(NC(=O)c2c(C(F)(F)F)nn(C)c2SCc2ccccc2)cc1 | 14.9 |
| Cc1nc2cc(C(=O)N3c4ccccc4CC3C)ccc2s1 (stereo not shown) | 7.63 |
| Cc1cccc2cc(CN(C(=S)NCC(C)C)C3CCCC3)c(=O)[nH]c12 | 14 |
| COc1ccc(-n2c(C)nn(C)c2=O)cc1 | 9.88 |
| CCc1nc2ccc(C(=O)N(C)CC(=O)Nc3ccc(Cl)c(C(F)(F)F)c3)cc2nc1CC | 6.47 |
| COC(=O)C(C)(C)ONC(=O)Nc1ccccc1 | 4.94 |
| Fc1ccc(N2CN(Cc3cccnc3)CNC2=S)cc1 | 14.3 |
| CC(=O)NC1(c2cccc(F)c2)CCN(CC(=O)NC(C)C)CC1 | 5.25 |
| NC(=O)C1CC(=O)N(CCc2ccc(F)cc2)C1 (stereo not shown) | 8.95 |
| CCOc1cc(NC(=S)NCc2ccco2)c(OCC)cc1NC(=O)c1ccco1 | 9.12 |
